These results are taken from ChEMBL document CHEMBL4888484, “Replenishing the malaria drug discovery pipeline: Screening and hit evaluation of the MMV Hit Generation Library 1 (HGL1) against asexual blood stage Plasmodium falciparum ,using a nano luciferase reporter read-out” (2022).

In all, about 150,000 compounds went through this assay and about 540 (0.36%) showed an effect of 50% or more. Some of the results follow.

This assay relates to Plasmodium falciparum. As to the kind of experiment: Primary screen in NF54 nanoGlo assay, in single point, at 2uM, 72h; a lower Z score goes with more inhibition. The note with it: timepoint 72 hour. Format: functional, Erythrocyte.
A word on the % Inhibition: it is the drop in the measured response relative to a control, in per cent. For `CCOC(=O)[C@@]1(C(C)C)CCN(C(=O)c2csnc2C)C1`, the “% Inhibition” value was -8% and the Z score worked out at 0.82.

`C[C@@H](C(=O)Nc1ccc(F)cc1)N1CCC(NS(=O)(=O)c2cccs2)CC1`: the “% Inhibition” value was determined as 32% and the Z score is -3.04.

Regarding `Cc1ccccc1C(=O)N1C(C(=O)NC(C)c2ccccc2)COC12CCN(C(=O)CC(C)(C)C)CC2` (centres undefined), the “% Inhibition” value is listed as -5% and the Z score was 0.47.

Regarding `O=C(NCCc1ccc2c(c1)OCO2)[C@@H]1C[C@@H](NCC2CCCCC2)CN1Cc1cccc(Cl)c1`, the “% Inhibition” value is on record as -13% and the Z score stood at 1.64.

Turning to `CN(C)S(=O)(=O)CCNC(=O)Nc1ccc(Cl)cc1C(F)(F)F`, the “% Inhibition” value is given as -8% and the Z score is 1.16.

As for `COc1nc(-c2ccc(C(F)(F)F)cc2)n(-c2ccc(NC(=O)c3ccc(F)cc3)cc2)n1`, the “% Inhibition” value worked out at 5% and the Z score is listed as -0.6.

Turning to `COc1ccc(S(=O)(=O)N2C[C@H]3CC=CC[C@H]3C2)cc1Cl`, the “% Inhibition” value was -6% and the Z score is recorded as 1.01.

With `Oc1cc(-c2cccc(Cl)c2)cc2c1OCCNC2`, the “% Inhibition” value worked out at 3% and the Z score is recorded as -0.44.

As for `CC1CCCCN1C(=O)CN1CCN(C(=O)[C@H]2C[C@@H]2c2cccnc2)CC1` (some centres undefined), the “% Inhibition” value was -8% and the Z score was determined as 1.67.

On to `O=C(NCCc1ccc(Cl)cc1)c1c(O)c2c([nH]c1=O)CCCC2`, for which the “% Inhibition” value worked out at 13% and the Z score is on record as -1.97.

Take `O=C1CC[C@@]2(CCCN(c3ccccn3)C2)CN1Cc1ccccc1`: the “% Inhibition” value is listed as -1% and the Z score is 0.11.

`CCN1CC[C@H](NC(=O)c2nc(C3CC3)ncc2Br)C1`: the “% Inhibition” value is 1% and the Z score is listed as -0.16.

For the compound `CCCN(CC(=O)N(Cc1ccco1)C[C@H]1CCCO1)C(=O)c1ccc(C)cc1`, the “% Inhibition” value is listed as -8% and the Z score came to 1.14.

Take `COc1ccc(OC)c(NC(=O)Cn2cnc3nc(N4CCCC4)sc3c2=O)c1`: the “% Inhibition” value was -12% and the Z score was 2.

In the case of `O=C(Cn1ccc2ccccc21)N1CCN(c2ccc(-n3cncn3)nn2)CC1`, the “% Inhibition” value was found to be 17% and the Z score is -2.18.

Turning to `CCOC(=O)C1(NCc2nc(C)c(C)o2)Cc2ccccc2C1`, the “% Inhibition” value is given as -8% and the Z score is given as 1.12.

Consider `CCCc1cnc(C)nc1-c1ccccc1N(C)C`, for which the “% Inhibition” value is -17% and the Z score is recorded as 1.65.

Consider `Cn1cc(C(=O)N[C@H]2CCCN(Cc3ccccc3)C2)ccc1=O`, for which the “% Inhibition” value was -8% and the Z score is 1.23.

As for `CC(C)[C@H](C)N(C)C(=O)C1(S(C)(=O)=O)CCC1`, the “% Inhibition” value is reported as -10% and the Z score amounted to 0.88.

Turning to `C#CCOC[C@@H](O)CN(CCC(C)C)Cc1c(-c2ccccc2)noc1N(C)C(C)C`, the “% Inhibition” value is recorded as 8% and the Z score was -1.52.

On to `CC(C)Cc1cnc(NC(=O)N[C@@]2(C)CCOC2)s1`, for which the “% Inhibition” value was determined as 8% and the Z score is -1.23.

As for `Cc1ccc(Cl)c(CN2CCC[C@H](Cn3ccnc3C)C2)c1F`, the “% Inhibition” value turned out to be 3% and the Z score was -0.47.

With `Cc1c(C2=CCN(S(C)(=O)=O)CC2)c2ccccc2n1Cc1ccc(F)cc1`, the “% Inhibition” value came to 8% and the Z score is reported as -1.03.

Turning to `CC(C)c1ccc(-c2n[nH]nc2C(=O)c2ccccc2N)cc1`, the “% Inhibition” value came out at 40% and the Z score is -5.19.

As for `CCc1nc(NC(=O)CCc2ccco2)sc1C`, the “% Inhibition” value was -11% and the Z score came out at 1.53.

Turning to `Cn1nc(C2CC2)nc1COc1cc(C(F)F)nc2ccc(Cl)cc12`, the “% Inhibition” value is given as 31% and the Z score is -4.48.

As to `O=c1[nH]c2ccc(Br)cc2c(-c2ccccc2)c1-c1cc(-c2ccccc2)c2ccccc2n1`, the “% Inhibition” value is recorded as -12% and the Z score was found to be 2.43.

For `C=CCn1c(N)c(C(=O)NCCc2ccc(OC)c(OC)c2)sc1=S`, the “% Inhibition” value is reported as 0% and the Z score stood at 0.06.

Take `CCN(CC)c1ccc(C(=O)Nn2cc(C(=O)Nc3cc(Cl)c(OC)cc3OC)c3ccccc3c2=O)cc1`: the “% Inhibition” value was -3% and the Z score is recorded as 0.43.

Consider `COc1ccc(S(=O)(=O)N(C)c2ccnc(C(=O)N3CCCCCC3)c2)cc1`, for which the “% Inhibition” value was -8% and the Z score was 1.25.

Take `CN(C)CCN(Cc1ccsc1)C(=O)c1ccc(-c2cnc(N)cn2)cc1`: the “% Inhibition” value is -22% and the Z score turned out to be 1.99.

On to `Cc1cc(S(=O)(=O)N2Cc3c(C(=O)NCc4cccnc4)nn(C)c3C2)ccc1F`, for which the “% Inhibition” value is -2% and the Z score stood at 0.4.

As for `CNC[C@H]1CCCN1S(=O)(=O)c1cccc(C)c1Cl`, the “% Inhibition” value was -4% and the Z score stood at 0.69.

For `CCOCCC(=O)NC1(CN2CCCCC2)CC1`, the “% Inhibition” value is -9% and the Z score is 1.85.

`Cc1cc2c(cc1S(=O)(=O)N1CCC[C@H](C(=O)N3CCCCCC3)C1)OCC(=O)N2`: the “% Inhibition” value is reported as 3% and the Z score was -0.55.

For the compound `COCCNC(=O)N1CC[C@H](S(=O)(=O)c2ccccc2)C1`, the “% Inhibition” value is on record as -10% and the Z score was 1.71.

On to `Cc1cnccc1NC(=O)N1CCC[C@H]1c1ccc2c(c1)OCCO2`, for which the “% Inhibition” value is given as -6% and the Z score is listed as 0.81.

`Cc1ccc(NC(=O)Cn2cnc3cc4c(cc32)OCCO4)cc1C`: the “% Inhibition” value is -16% and the Z score was determined as 1.58.

Consider `COC[C@H]1CCN(Cc2ccc3ncccc3c2)C1`, for which the “% Inhibition” value is -2% and the Z score was 0.36.

As for `CN1CC[C@H](N(C)Cc2cccc(OC(F)(F)F)c2)C1=O`, the “% Inhibition” value is recorded as -8% and the Z score came to 1.

Regarding `Cn1cc(C(=O)c2cc3ccccc3o2)cn1`, the “% Inhibition” value is listed as -17% and the Z score turned out to be 2.15.

For the compound `COc1ccccc1[C@@H](NCc1cccnc1)c1ccco1`, the “% Inhibition” value is -13% and the Z score turned out to be 1.52.
